Results on 25 molecules are retold here after article PMC4336329 (PLoS ONE, 2015).

About 14,000 (4.5%) of roughly 310,000 compounds showed an effect of 50% or more. Effects have a minus sign here. The list shows a part of the results.
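Further: peak tail current of the secondary pulse compared with the same well before compound.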

The assay deals with human ether-à-go-go-related gene (hERG) potassium channel (human, UniProt Q12809). In words: primary screen, population patch clamp on CHO cells stably expressing hERG.
Chain of human ether-à-go-go-related gene (hERG) potassium channel (Q12809 whole entry, looked up): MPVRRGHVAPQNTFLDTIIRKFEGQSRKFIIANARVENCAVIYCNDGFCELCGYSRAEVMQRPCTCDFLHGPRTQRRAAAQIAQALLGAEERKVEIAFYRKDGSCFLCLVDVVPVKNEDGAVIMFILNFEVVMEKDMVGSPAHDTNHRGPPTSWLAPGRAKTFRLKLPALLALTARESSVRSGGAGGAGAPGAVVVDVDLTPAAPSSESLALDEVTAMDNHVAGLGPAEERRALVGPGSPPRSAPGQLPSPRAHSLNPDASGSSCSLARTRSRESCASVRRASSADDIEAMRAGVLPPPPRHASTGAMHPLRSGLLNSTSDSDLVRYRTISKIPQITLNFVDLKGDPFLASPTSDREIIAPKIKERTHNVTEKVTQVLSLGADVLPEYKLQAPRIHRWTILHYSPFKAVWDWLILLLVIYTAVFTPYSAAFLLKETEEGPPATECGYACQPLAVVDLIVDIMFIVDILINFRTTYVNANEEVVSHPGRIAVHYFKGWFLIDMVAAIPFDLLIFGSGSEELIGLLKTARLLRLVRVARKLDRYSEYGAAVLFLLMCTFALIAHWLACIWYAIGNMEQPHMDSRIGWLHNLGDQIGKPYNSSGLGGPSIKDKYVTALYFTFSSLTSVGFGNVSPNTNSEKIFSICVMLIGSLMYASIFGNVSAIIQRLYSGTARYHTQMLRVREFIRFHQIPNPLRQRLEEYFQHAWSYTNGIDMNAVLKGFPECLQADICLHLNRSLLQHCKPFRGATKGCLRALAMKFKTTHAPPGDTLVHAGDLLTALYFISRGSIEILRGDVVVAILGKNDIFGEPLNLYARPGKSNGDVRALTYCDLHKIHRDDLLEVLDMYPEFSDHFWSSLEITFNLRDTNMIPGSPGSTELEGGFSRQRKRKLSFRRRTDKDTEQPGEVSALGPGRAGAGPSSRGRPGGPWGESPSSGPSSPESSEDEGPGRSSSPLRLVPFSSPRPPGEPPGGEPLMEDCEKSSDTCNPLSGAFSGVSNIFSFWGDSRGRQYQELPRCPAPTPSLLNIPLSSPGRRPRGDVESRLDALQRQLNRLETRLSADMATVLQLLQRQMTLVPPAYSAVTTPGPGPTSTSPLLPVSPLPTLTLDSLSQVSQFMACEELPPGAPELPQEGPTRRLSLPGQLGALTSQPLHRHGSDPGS
With `Cn1nc(OC(=O)Nc2cccc(Cl)c2)cc1C(F)(F)F`, the “hERG current change (%, negative = inhibition) at 10uM” value worked out at 7.93%.

On to `Cc1ccccc1OCCn1cc(C(=S)N2CCCC2)c2ccccc21`, for which the “hERG current change (%, negative = inhibition) at 10uM” value stood at 9.04%.

`O=C(O)CC1(CC(=O)Nc2ccc(F)cc2F)CCCCC1`: the “hERG current change (%, negative = inhibition) at 10uM” value is recorded as -15.3%.

For `CC(=O)Nc1ccc(S(=O)(=O)n2nc(C)cc2C)cc1`, the “hERG current change (%, negative = inhibition) at 10uM” value worked out at 20.4%.

With `CSc1nc(NCC(C)O)c2c3c(sc2n1)CN(C)CC3` (stereo not shown), the “hERG current change (%, negative = inhibition) at 10uM” value is given as -42%.

As for `Cc1ccc(Cn2nnc3c(=O)[nH]c(C4CCN(S(=O)(=O)c5ccc(C)cc5)CC4)nc32)cc1`, the “hERG current change (%, negative = inhibition) at 10uM” value was -26.5%.

For `COc1ccccc1-n1cnnc1SCC(=O)Nc1cccc(S(=O)(=O)N2CCCCC2)c1`, the “hERG current change (%, negative = inhibition) at 10uM” value was -28.7%.

Regarding `Cc1ccc(N)cc1S(=O)(=O)N(C)C`, the “hERG current change (%, negative = inhibition) at 10uM” value came out at 20.4%.

Turning to `Cc1nc(C)c(C(=O)OCC(=O)NCc2ccccc2)s1`, the “hERG current change (%, negative = inhibition) at 10uM” value is 7.46%.

Regarding `Cc1noc(C)c1-c1ccc2ncnc(NC(C)c3ccco3)c2c1` (stereo not shown), the “hERG current change (%, negative = inhibition) at 10uM” value is reported as -8.56%.

On to `CC(c1ccncc1)C(C)c1ccncc1` (stereo not shown), for which the “hERG current change (%, negative = inhibition) at 10uM” value amounted to 9.84%.

With `Cc1cccc(-c2nc(CS(=O)CC(=O)NCCCSC3CCCCC3)c(C)o2)c1` (stereo not shown), the “hERG current change (%, negative = inhibition) at 10uM” value is -29.4%.

For the molecule `CCC(C)(C)C1CCC2(CC1)NC(=O)N(CC(=O)N(C)Cc1ccc(OC(F)F)cc1)C2=O` (stereo not shown), the “hERG current change (%, negative = inhibition) at 10uM” value is on record as 1.47%.

In the case of `CC(=O)Nc1cccc(C(=O)OCC(=O)NC2CCCCCCC2)c1`, the “hERG current change (%, negative = inhibition) at 10uM” value was 6.7%.

Regarding `CC(=O)C(C)Oc1cc(C)cc2oc(=O)c(C)c(C)c12` (stereo not shown), the “hERG current change (%, negative = inhibition) at 10uM” value stood at 3.13%.

Turning to `O=C(c1cc(-c2ccc(O)cc2)on1)N1CCCC1`, the “hERG current change (%, negative = inhibition) at 10uM” value came out at 2.56%.

With `Cc1cc(C(=O)COC(=O)c2n[nH]c(=O)c3ccccc23)c(C)n1C`, the “hERG current change (%, negative = inhibition) at 10uM” value was 15.3%.

As to `Cc1cc(CNC(=O)CCc2nnc(CCCc3ccccc3)o2)nn1C`, the “hERG current change (%, negative = inhibition) at 10uM” value is 23%.

As for `CC(=O)N1CCN(c2ccc(NC(=O)/C=C/c3ccccc3)cc2)CC1`, the “hERG current change (%, negative = inhibition) at 10uM” value is on record as -32.8%.

Turning to `O=C(CSc1nc2[nH]ncc2c(=O)n1-c1ccccc1)NCCc1ccccc1`, the “hERG current change (%, negative = inhibition) at 10uM” value was determined as 41.6%.

For `Cc1ccccc1Nc1ncnc2c1cnn2Cc1ccccc1`, the “hERG current change (%, negative = inhibition) at 10uM” value was -10.8%.

As to `CN(C)/C=C1\C(=O)Nc2ccccc21`, the “hERG current change (%, negative = inhibition) at 10uM” value is given as 13.3%.

Turning to `O=C(CSc1nnc(-c2ccncc2)n1-c1ccccc1)Nc1ccc(C(=O)O)cc1`, the “hERG current change (%, negative = inhibition) at 10uM” value was determined as 25.5%.

On to `COc1ccc(OC)c(S(=O)(=O)N2CCN(C(=O)NC3CCCCC3)CC2)c1`, for which the “hERG current change (%, negative = inhibition) at 10uM” value was -12.6%.

In the case of `Cc1ccccc1S(=O)(=O)Cc1ccc(C(=O)NC2CCCC2)o1`, the “hERG current change (%, negative = inhibition) at 10uM” value is recorded as -6.44%.
